# Experimental data taken from the supplement of paper PMC6451100.
# The other results are listed elsewhere or left out. Read counts after selection give these values, which scatter widely.
# Molecular target: T1, Drosophila AGO2 (FLAG-tagged, S2-R+ lysate) (UniProt Q9VUQ5)
# T1 sequence: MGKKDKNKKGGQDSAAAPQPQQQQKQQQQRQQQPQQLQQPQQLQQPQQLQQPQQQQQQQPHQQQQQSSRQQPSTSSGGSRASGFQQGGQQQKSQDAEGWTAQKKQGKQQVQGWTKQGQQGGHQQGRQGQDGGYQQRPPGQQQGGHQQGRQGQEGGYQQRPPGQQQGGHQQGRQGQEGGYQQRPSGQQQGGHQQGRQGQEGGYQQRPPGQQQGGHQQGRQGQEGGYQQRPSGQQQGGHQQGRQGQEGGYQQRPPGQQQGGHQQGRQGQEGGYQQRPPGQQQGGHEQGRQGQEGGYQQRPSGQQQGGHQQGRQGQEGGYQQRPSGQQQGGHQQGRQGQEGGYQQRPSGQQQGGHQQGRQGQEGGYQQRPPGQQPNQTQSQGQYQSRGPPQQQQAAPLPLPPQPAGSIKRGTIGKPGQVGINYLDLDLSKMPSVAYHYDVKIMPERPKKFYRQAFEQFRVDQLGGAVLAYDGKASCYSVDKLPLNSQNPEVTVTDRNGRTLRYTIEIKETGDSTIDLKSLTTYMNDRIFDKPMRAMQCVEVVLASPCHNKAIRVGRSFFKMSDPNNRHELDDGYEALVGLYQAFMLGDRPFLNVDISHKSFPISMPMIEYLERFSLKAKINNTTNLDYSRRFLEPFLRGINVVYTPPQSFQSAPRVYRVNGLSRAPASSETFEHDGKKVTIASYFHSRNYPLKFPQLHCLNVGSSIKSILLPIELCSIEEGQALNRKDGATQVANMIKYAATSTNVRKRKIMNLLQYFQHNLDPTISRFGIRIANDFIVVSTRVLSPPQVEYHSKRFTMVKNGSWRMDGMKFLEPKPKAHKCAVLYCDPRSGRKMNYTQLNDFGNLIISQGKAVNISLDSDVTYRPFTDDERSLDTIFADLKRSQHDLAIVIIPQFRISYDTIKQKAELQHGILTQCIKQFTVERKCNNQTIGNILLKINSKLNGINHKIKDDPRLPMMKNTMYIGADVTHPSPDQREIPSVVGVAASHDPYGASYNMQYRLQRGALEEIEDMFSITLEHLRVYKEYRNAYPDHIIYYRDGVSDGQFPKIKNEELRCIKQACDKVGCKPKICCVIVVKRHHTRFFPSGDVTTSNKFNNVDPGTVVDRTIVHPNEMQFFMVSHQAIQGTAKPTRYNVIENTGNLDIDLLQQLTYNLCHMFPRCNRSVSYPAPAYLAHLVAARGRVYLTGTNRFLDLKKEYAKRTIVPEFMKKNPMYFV
# Experiment: AGO2 loading enrichment factor (IP read count / input read count, not library-size normalised) (ratio); higher = more efficient loading into AGO2
# Conditions: randomized region: 5' 5N of miR-317 loop
# Experimental: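 HISSA: 5'-phosphorylated, 32P-labelled 20-nt ssRNA oligos (miR-317 loop, first 5 nt randomized, constant 3' part TGAAATGCAAGCAAG as printed in methods; DNA letters for RNA) incubated 1 h at 25°C in lysate of S2-R+ cells expressing FLAG-AGO2. FLAG-AGO2 was immunopurified and bound oligos were sequenced after splinted ligation. Enrichment factor = IP read count / input read count (raw counts, not library-size normalised); single library, no replicates.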
# 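Further: Per-sequence enrichment computed with FASTAptamer, counting only reads that carry the expected constant 3′ region.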
row,Sequence,AGO2 loading enrichment factor
1,TTGTGTGAAATGCAAGCAAG,0.205
2,CGACGTGAAATGCAAGCAAG,0.404
3,CGTATTGAAATGCAAGCAAG,0.371
4,TCCAGTGAAATGCAAGCAAG,0.399
5,TCCCATGAAATGCAAGCAAG,0.619
6,CAAACTGAAATGCAAGCAAG,0.297
7,GATGATGAAATGCAAGCAAG,0.747
8,CACCCTGAAATGCAAGCAAG,0.295
9,CCCAGTGAAATGCAAGCAAG,0.381
10,TGAAGTGAAATGCAAGCAAG,0.413
11,CACTATGAAATGCAAGCAAG,0.301
12,TAAAGTGAAATGCAAGCAAG,0.364
13,GGACGTGAAATGCAAGCAAG,1.35
14,TAGGCTGAAATGCAAGCAAG,0.127
15,CAGTGTGAAATGCAAGCAAG,0.303
16,GTCGTTGAAATGCAAGCAAG,0.986
17,GGACCTGAAATGCAAGCAAG,0.679
18,TAAATTGAAATGCAAGCAAG,0.349
19,CAAGGTGAAATGCAAGCAAG,0.913
20,CAGCATGAAATGCAAGCAAG,0.183
21,TCTCTTGAAATGCAAGCAAG,0.269
22,ACTACTGAAATGCAAGCAAG,0.398
23,AGCAATGAAATGCAAGCAAG,0.258
24,CGCCTTGAAATGCAAGCAAG,0.382
25,CTAGCTGAAATGCAAGCAAG,0.0681

row,Sequence,AGO2 loading enrichment factor
1,ATGTTTGAAATGCAAGCAAG,0.245
2,ATCATTGAAATGCAAGCAAG,0.561
3,CTCCATGAAATGCAAGCAAG,0.442
4,CGAGATGAAATGCAAGCAAG,0.443
5,CTAGGTGAAATGCAAGCAAG,0.484
6,TAGGTTGAAATGCAAGCAAG,0.466
7,CTACATGAAATGCAAGCAAG,0.216
8,CCAAATGAAATGCAAGCAAG,0.435
9,ACGTCTGAAATGCAAGCAAG,0.489
10,CTCAGTGAAATGCAAGCAAG,0.495
11,GAGAGTGAAATGCAAGCAAG,1.06
12,AGCGATGAAATGCAAGCAAG,0.385
13,TGCCTTGAAATGCAAGCAAG,0.181
14,TTTTATGAAATGCAAGCAAG,0.444
15,ATAGGTGAAATGCAAGCAAG,0.69
16,TTACTTGAAATGCAAGCAAG,0.408
17,CGTCATGAAATGCAAGCAAG,0.398
18,CTGCATGAAATGCAAGCAAG,0.136
19,GGTATTGAAATGCAAGCAAG,0.443
20,GCAAATGAAATGCAAGCAAG,0.262
21,CGTAGTGAAATGCAAGCAAG,0.415
22,CTGGATGAAATGCAAGCAAG,0.632
23,GGGCCTGAAATGCAAGCAAG,1.24
24,CTTAATGAAATGCAAGCAAG,0.281
25,GTCTATGAAATGCAAGCAAG,0.608

row,Sequence,AGO2 loading enrichment factor
1,GTTCCTGAAATGCAAGCAAG,0.442
2,GGGGTTGAAATGCAAGCAAG,8.37
3,CACATTGAAATGCAAGCAAG,0.472
4,AATTGTGAAATGCAAGCAAG,0.0859
5,GTGCATGAAATGCAAGCAAG,0.25
6,ACAAATGAAATGCAAGCAAG,0.478
7,CCTTCTGAAATGCAAGCAAG,0.335
8,AGCTGTGAAATGCAAGCAAG,0.224
9,AACGATGAAATGCAAGCAAG,0.423
10,TGATGTGAAATGCAAGCAAG,0.315
11,AGCGTTGAAATGCAAGCAAG,0.318
12,CAGGATGAAATGCAAGCAAG,0.736
13,GCCTGTGAAATGCAAGCAAG,0.0181
14,ATAAATGAAATGCAAGCAAG,0.505
15,GGATATGAAATGCAAGCAAG,0.638
16,GCTACTGAAATGCAAGCAAG,0.192
17,CCTGCTGAAATGCAAGCAAG,0.123
18,TGGTGTGAAATGCAAGCAAG,0.739
19,GGCAATGAAATGCAAGCAAG,0.335
20,GTACATGAAATGCAAGCAAG,0.444
21,CGCTGTGAAATGCAAGCAAG,0.396
22,AGATATGAAATGCAAGCAAG,0.405
23,CTAAATGAAATGCAAGCAAG,0.45
24,AGTGGTGAAATGCAAGCAAG,1.46
25,TTTTCTGAAATGCAAGCAAG,1.03

row,Sequence,AGO2 loading enrichment factor
1,TCACTTGAAATGCAAGCAAG,0.111
2,AAAGGTGAAATGCAAGCAAG,0.728
3,TACGGTGAAATGCAAGCAAG,0.41
4,GGCATTGAAATGCAAGCAAG,0.25
5,GTGCCTGAAATGCAAGCAAG,0.718
6,CCTGATGAAATGCAAGCAAG,0.323
7,ATGGTTGAAATGCAAGCAAG,0.567
8,TTCGGTGAAATGCAAGCAAG,0.624
9,TAAGTTGAAATGCAAGCAAG,0.306
10,GCATCTGAAATGCAAGCAAG,0.106
11,AATGGTGAAATGCAAGCAAG,0.462
12,GTCATTGAAATGCAAGCAAG,0.508
13,ACAACTGAAATGCAAGCAAG,0.435
14,AGGTTTGAAATGCAAGCAAG,0.26
15,CCCCCTGAAATGCAAGCAAG,0.243
16,CATCGTGAAATGCAAGCAAG,0.274
17,TTCTCTGAAATGCAAGCAAG,0.495
18,CGGCGTGAAATGCAAGCAAG,0.602
19,TTCAGTGAAATGCAAGCAAG,0.48
20,TGCTATGAAATGCAAGCAAG,0.146
21,AAATATGAAATGCAAGCAAG,0.447
22,CTAATTGAAATGCAAGCAAG,0.423
23,GACAGTGAAATGCAAGCAAG,0.346
